The values below come from ChEMBL document CHEMBL1201862, “PubChem BioAssay data set” (2004).

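Protocol summary: plate cells (96-well), add compound at 5 concentrations, incubate 48 h, interpolate endpoints linearly. GI50 marks 50% less growth.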 The source made the active and inactive calls. Rule as the data show it: active = GI50 up to about 1.1 µM and inactive = higher.

The test relates to NCI-H322M. As to the kind of experiment: NCI anticancer screen, dose series, 48 h.
In the case of `Cc1ccc(S(=O)(=O)Nc2ccccc2C=O)cc1`, the GI50 was inactive: 21.4 µM.

As for `O=C(NNC(=O)c1ccccc1O)c1cccc(Br)c1`, the GI50 is inactive: 47.1 µM.

For the molecule `NS(=O)(=O)c1cc(Br)c(/N=N\c2ccc(O)c3ncccc23)c(Br)c1`, the GI50 is inactive: 39.7 µM.

With `O=[N+]([O-])c1cccc2nc3ccccc3c(NCCCn3ccnc3[N+](=O)[O-])c12`, the GI50 was active: 0.000379 µM.

Take `C=C(c1ccc2[nH]c(NC(=O)OC)nc2c1)c1cccs1`: the GI50 was active: 0.166 µM.

Take `Cn1c(=S)c2nc(SCCN3C(=O)c4ccccc4C3=O)[nH]c2n(C)c1=O`: the GI50 was inactive: > 100 µM.

Consider `Clc1ccc(NCNC2Nc3ccccc3N2)cc1Cl`, for which the GI50 was inactive: > 100 µM.

Regarding `N[C@H]1C2C3CC4C5CC(C42)C1(c1ccccc1)C53` (some centres undefined), the GI50 is inactive: > 100 µM.

As to `CCNC(=S)NNC(=O)c1csc(NC(=S)NC2CCCCC2)n1`, the GI50 was inactive: 8.22 µM.

As to `Cc1cc(C)c(-c2noc(-c3ccc(Cl)cc3)c2C2=NCCN2)c(C)c1`, the GI50 is inactive: 26.4 µM.

Regarding `COc1ccc(C2=NOC(N)(c3ccc(OC)cc3)C2)cc1` (centres undefined), the GI50 was inactive: > 100 µM.

Consider `O=c1oc2c/c(=C\c3ccc([N+](=O)[O-])cc3)c(=O)c3cccc1c3-2`, for which the GI50 was inactive: > 100 µM.

For the molecule `CSc1scc2c1/C(=N/NC(N)=O)CCC2`, the GI50 is inactive: > 100 µM.

As to `COC(=O)N/N=C(/CCN1CCCC1)CC(c1ccccc1)c1c(O)c2ccccc2oc1=O` (centres undefined), the GI50 is inactive: > 100 µM.

On to `CC1=CC(c2ccccc2)n2c(nc3cc4ccccc4cc32)N1` (centres undefined), for which the GI50 is inactive: > 100 µM.

As for `COC(=O)c1cc2c3c(ccc2[nH]1)N(C(=O)c1cc2cc(OC)c(OC)c(OC)c2[nH]1)CC3CCl` (centres undefined), the GI50 is inactive: > 100 µM.

Regarding `C1OCN2c3nonc3N3COCN4c5nonc5N1C2C43` (centres undefined), the GI50 was inactive: > 100 µM.

On to `CC(=O)N1CCC(=O)/C(=C/c2ccccc2)C1`, for which the GI50 is inactive: > 100 µM.

Turning to `COc1ccc2oc(=O)c(-c3csc(C)n3)cc2c1`, the GI50 is inactive: > 100 µM.

As to `C[C@H](c1ccccc1)N1C(=O)[C@@H](OCc2ccccc2)[C@H]1[C@H](COC(=O)COCc1ccccc1)OCc1ccccc1`, the GI50 was inactive: > 100 µM.

With `CSc1nc(Cl)c2c(n1)Sc1nc3cc4c(cc3n1C2O)OCCO4` (centres undefined), the GI50 is inactive: 2.99 µM.

For `COc1cc2c(cc1OC)-c1c(oc3cc(OC4OC(CO)C(O)C(O)C4O)c(OC)cc3c1=O)C(O)O2` (centres undefined), the GI50 was inactive: > 100 µM.

Take `CC(=O)c1c2c(c3ccccc3c1O)O[C@@H]1OCC[C@H]21`: the GI50 is inactive: > 100 µM.

As for `COC(=O)C1(Cc2ccc3c(c2)CCC3)Cc2cc3c(cc2C1=O)CCC3` (centres undefined), the GI50 is inactive: > 46.5 µM.

As for `CC(=O)/C(=C\NC(=S)Nc1ccc(S(N)(=O)=O)cc1)C(=O)Nc1ccccc1C`, the GI50 is inactive: 62.8 µM.

Take `CCOC(=O)c1cc2c([nH]1)c(OC(C)=O)cc1c2ccn1Cc1ccccc1`: the GI50 is inactive: > 100 µM.

On to `COc1cc(I)c2c3c1OC1C34CCN(C)C(C2)C4=CC(I)C1(OC)OC` (centres undefined), for which the GI50 is inactive: 39.9 µM.

For the molecule `Cc1ccc2nc(CN(CCO)CCO)cc(=O)n2c1`, the GI50 is inactive: > 100 µM.

`CCOc1cnc(C(O)(c2ccccc2)c2ccccc2)o1`: the GI50 was inactive: > 100 µM.

Consider `CC(C)=NN/C(=N\c1ccc(Cl)cc1)NS(=O)(=O)c1cc2ccccc2s1`, for which the GI50 is inactive: 58.6 µM.

As to `NC1CC(=O)c2ccccc21` (centres undefined), the GI50 is inactive: > 100 µM.

Take `COc1ccc(/C=C2/N/C(=N\N=C/C(O)C(O)C(O)CO)NC2=O)cc1` (centres undefined): the GI50 was inactive: > 100 µM.

`CCn1c2ccccc2c2ccc(C3C(C(=O)OC)=C(C)NC(C)=C3C(=O)OC)cc21`: the GI50 was inactive: 33.7 µM.

For `CN(CC(=O)O)S(=O)(=O)c1ccc(Cl)cc1`, the GI50 is inactive: > 100 µM.

For the molecule `CCOC(=O)CCc1c(C(=O)OCC)[nH]c(/C=C2\NC(=O)C(C)=C2CC)c1C`, the GI50 was inactive: 3.08 µM.

Consider `O=C(/C=C/c1ccc(OCCCCCCCCCCOc2ccc(/C=C/C(=O)c3ccc(Cl)cc3)cc2)cc1)c1ccc(Cl)cc1`, for which the GI50 is inactive: > 100 µM.

As for `N#C/C(=C\c1cccc(Cl)c1Cl)c1ccccc1`, the GI50 is inactive: > 82.8 µM.

With `O=C(O)C12C3C4(C(=O)O)C1C1(C(=O)O)C2C3(C(=O)O)C41` (centres undefined), the GI50 is inactive: > 100 µM.

With `CCOC(=O)NC(=O)c1cn(CCOCCOC(=O)NCCCCCCNC(=O)OCCOCCn2cc(C(=O)NC(=O)OCC)c(=O)[nH]c2=O)c(=O)[nH]c1=O`, the GI50 is inactive: > 100 µM.

`COc1cc(S(=O)(=O)N/N=C/c2cc(Br)c(O)c(OC)c2)c(OC)cc1NC(C)=O`: the GI50 is inactive: > 100 µM.

Consider `COC(=O)C1=C(C(=O)OC)C2(C3C(SC)=CC(C)(C)CC3S1)N(Cc1ccccc1)CCN2Cc1ccccc1` (centres undefined), for which the GI50 was inactive: 82 µM.

Take `O=S1(=O)OCCOS(=O)(=O)C1I`: the GI50 was inactive: > 100 µM.

Take `CC(C)N(C(=O)C12CC3CC(CC(C3)C1)C2)C(C)C`: the GI50 was inactive: > 50 µM.

Consider `OC(C1CCC=NN1C(O)(C(F)(F)F)C(F)(F)F)(C(F)(F)F)C(F)(F)F` (centres undefined), for which the GI50 was inactive: > 10 µM.

`COC(=O)CCCc1ccc2c(c1)CC1(Cc3ccccc3C1)C2`: the GI50 is inactive: > 100 µM.

Take `Cc1csc2nc(-c3cc([N+](=O)[O-])c(Cl)cc3Cl)c(/C=N/N=C(N)N)n12`: the GI50 was inactive: 15 µM.

In the case of `Cc1cccc(NC2=NC(=O)C(CC(=O)Nc3ccc(Cl)cc3C)S2)c1` (centres undefined), the GI50 was inactive: > 100 µM.

Regarding `CC(=O)Oc1ccccc1-c1cc2ccccc2oc1=O`, the GI50 was inactive: 98.6 µM.

Consider `Cc1ccc2c(=O)cc(Cc3cccs3)[nH]c2n1`, for which the GI50 is inactive: > 100 µM.

On to `Cc1cc2c(=O)cc(-c3ccc(Cl)c(Cl)c3)oc2c(C(=O)O)c1C`, for which the GI50 is inactive: > 100 µM.

On to `CCOc1ccc(NC(=O)/C(Cc2nc3ccccc3nc2O)=N\O)cc1`, for which the GI50 was inactive: > 100 µM.

On to `O=C(NCCc1ccccc1)[C@H]1CCCC[C@@H]1CCO`, for which the GI50 is inactive: > 100 µM.

For the molecule `c1ccc(-c2cc(-c3cc(-c4ccccc4)[nH]n3)[nH]n2)cc1`, the GI50 is inactive: > 100 µM.

For `CC(C)(C)C1CCC2(CC1)c1[nH]c3ccccc3c1C1(CCC(C(C)(C)C)CC1)c1[nH]c3ccccc3c12` (centres undefined), the GI50 was inactive: > 100 µM.

Regarding `O=C(CC(=O)Nc1cccc(Cl)c1)NNCC(=O)Nc1nnc(-c2ccccc2)s1`, the GI50 is inactive: > 100 µM.

On to `O=S(=O)(O)c1ccc2c(/N=N/c3ccccc3)c(O)ccc2c1`, for which the GI50 was inactive: > 100 µM.

For the molecule `CCCCCCCCCCCCCC(=O)CSCCNC(=O)CCNC(=O)[C@@H](O)C(C)(C)COP(=O)(O)OP(=O)(O)OCC1OC(n2cnc3c(N)ncnc32)C(O)C1OP(=O)(O)O` (some centres undefined), the GI50 is inactive: 20.1 µM.

As to `COc1ccc(C2Oc3ccc(O)cc3[C@@H]2C)cc1OC` (some centres undefined), the GI50 was inactive: > 100 µM.

With `COc1cc2c(c(OC)c1OC)-c1ccc(SC)c(=O)cc1[C@@H](NC(=O)c1ccc([N+](=O)[O-])cc1)CC2`, the GI50 is active: 0.01 µM.
